Source: paper PMC4336329 (PLoS ONE, 2015)
Screen size: about 310,000 compounds; about 2,200 (0.71%) showed an effect of 50% or more. The effect is printed as a negative number. Some of the results follow.

These compounds were tested against human ether-à-go-go-related gene (hERG) potassium channel (human, UniProt Q12809) (assay: primary screen, population patch clamp on CHO cells stably expressing hERG).
Sequence of human ether-à-go-go-related gene (hERG) potassium channel (Q12809 whole entry, looked up): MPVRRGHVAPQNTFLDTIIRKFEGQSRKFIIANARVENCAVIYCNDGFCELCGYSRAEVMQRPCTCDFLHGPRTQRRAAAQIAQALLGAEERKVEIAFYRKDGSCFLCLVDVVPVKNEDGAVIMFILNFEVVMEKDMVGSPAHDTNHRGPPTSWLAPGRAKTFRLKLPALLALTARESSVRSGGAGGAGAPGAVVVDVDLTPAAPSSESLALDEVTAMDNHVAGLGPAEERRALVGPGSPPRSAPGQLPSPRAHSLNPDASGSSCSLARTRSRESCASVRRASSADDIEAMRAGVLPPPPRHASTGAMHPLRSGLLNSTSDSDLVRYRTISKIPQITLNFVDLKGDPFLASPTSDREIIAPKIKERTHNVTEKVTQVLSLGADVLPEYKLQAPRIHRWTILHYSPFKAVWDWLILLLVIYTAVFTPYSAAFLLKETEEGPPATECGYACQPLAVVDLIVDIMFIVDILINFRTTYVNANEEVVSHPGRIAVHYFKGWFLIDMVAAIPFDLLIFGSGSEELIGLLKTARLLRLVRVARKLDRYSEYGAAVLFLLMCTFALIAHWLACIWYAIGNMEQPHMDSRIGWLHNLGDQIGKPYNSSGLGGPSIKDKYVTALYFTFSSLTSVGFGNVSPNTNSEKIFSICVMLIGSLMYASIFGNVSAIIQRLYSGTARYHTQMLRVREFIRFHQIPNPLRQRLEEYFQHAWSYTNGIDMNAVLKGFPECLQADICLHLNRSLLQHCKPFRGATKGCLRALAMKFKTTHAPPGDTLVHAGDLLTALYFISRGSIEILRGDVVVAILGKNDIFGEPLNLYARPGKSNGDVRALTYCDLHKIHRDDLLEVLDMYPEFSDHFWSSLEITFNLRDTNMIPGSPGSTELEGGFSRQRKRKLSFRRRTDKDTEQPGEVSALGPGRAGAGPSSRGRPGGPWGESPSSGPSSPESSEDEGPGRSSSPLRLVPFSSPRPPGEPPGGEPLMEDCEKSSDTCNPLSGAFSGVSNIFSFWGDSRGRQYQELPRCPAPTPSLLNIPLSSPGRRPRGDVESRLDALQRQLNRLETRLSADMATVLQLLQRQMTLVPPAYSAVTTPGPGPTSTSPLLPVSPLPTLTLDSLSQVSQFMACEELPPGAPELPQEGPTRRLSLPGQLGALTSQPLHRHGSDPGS

Compound	hERG current change (%, negative = inhibition) at 1uM
COC(=O)CCC(=O)Nc1nccs1	6.03%
Cc1cccc(N2CC3=C(C2=O)C(c2ccccc2)NC(=O)N3C)c1 (stereo not shown)	-8.06%
COc1cc(SC)ccc1C(=O)Nc1nccs1	-4.11%
Cc1cccc(C(=O)Nc2sc(C)c(-c3ccccc3)c2C#N)c1	11.7%
COc1c(OC(C)=O)ccc(/C=C/c2ccc3cccc(OC)c3n2)c1[N+](=O)[O-]	15.5%
Cc1cccc(C)c1NC(=O)c1nc(S(=O)(=O)Cc2ccccc2)ncc1Cl	13%
CCc1ccccc1NC(=O)c1cc(-c2cccs2)on1	11%
CN(C(=O)CN1C(=O)NC(c2ccccc2)(c2ccccc2)C1=O)C1CCS(=O)(=O)C1 (stereo not shown)	15%
CCSc1nnc([C@H](Cc2c[nH]c3ccccc23)NC(=O)OC(C)(C)C)o1	5.13%
O=c1[nH]nc(-c2cccs2)c2ccccc12	8.52%
Cc1nn(CC(=O)OCCOc2ccc(Br)cc2)c(C)c1[N+](=O)[O-]	-2.66%
c1ccc(Cc2nc3ccccc3[nH]2)cc1	1.24%
Cc1ccc(C)c(NC(=O)CCN2CCN(C)CC2)c1	13.6%
CN(Cc1cn(C)nc1-c1cccc(Cl)c1)Cc1nccn1C	5.26%
CN(C(=O)c1ccc(OC2CCN(CCc3ccccc3)CC2)cc1)C1CCOC1 (stereo not shown)	4.27%
COc1ccc(S(=O)(=O)N2CCOCC2)cc1NC(=O)c1cccc(-n2cccc2)c1	-0.783%
CCCCOc1ccc(/C=C/C(=O)OCC(=O)NC2CCS(=O)(=O)C2)cc1OCC (stereo not shown)	14.6%
CN(C)S(=O)(=O)c1cccc(C(=O)OCC(=O)NCc2ccccc2)c1	3.55%
CCc1ccc(CNC(=O)CCCn2nc(C)n3ccnc3c2=O)cc1	11.2%
O=c1c2ccccc2nc(SCc2nnc(-c3ccccc3)o2)n1-c1ccccc1	11.6%
COc1ccc(S(=O)(=O)Cc2ccc(C(=O)N3CCN(C(=O)c4ccco4)CC3)o2)cc1	-0.815%
Cc1ccc(NC(=S)N(CCCN2CCOCC2)Cc2ccco2)cc1C	-2.78%
CC1CCC/C(=N\NC(=S)NCc2ccccc2)C1 (stereo not shown)	9.36%

Compound	hERG current change (%, negative = inhibition) at 1uM
Cc1ccc2oc(=O)c3cnn(CC(=O)N(Cc4ccco4)C4CCCCC4)c3c2c1	2.86%
C=CCN1C(=O)c2ccc(C(=O)N3CCC(C(N)=O)CC3)cc2C1=O	7.71%
CCOC(=O)CCc1nc2ccccc2[nH]1	21.3%
Cl.NCCCCC(=O)O	11.5%
Cc1ccc(C(=O)NC(C)c2nnc(SCC(=O)NC3CCCC3)n2C)cc1 (stereo not shown)	-3.25%
CC(C)Oc1cccc(-c2cc(C(=O)NN3CCOCC3)c3ccccc3n2)c1	-25.3%
O=C(CNC(=O)c1cccnc1)N/N=C/c1ccc(O)cc1O	8.95%
COc1ccccc1N1CCN(C(=O)c2sc3nc4n(c(=O)c3c2C)CCC4)CC1	15.3%
COc1ccc(N(CC(=O)N2CCc3ccccc3C2)S(C)(=O)=O)cc1Cl	10.6%
Cl.O=C(CCN1CCOCC1)NCc1ccccc1	13.1%
Cc1cc2nc(-c3ccc(SCc4ccccn4)nc3)[nH]c2cc1C	8.36%
Cc1ccc(C(=O)ONc2ccc(N=O)cc2)cc1	15.1%
COc1ccc(C(=S)N2CCNCC2)cc1	6.37%
CC(=O)NCC(=O)OCC(=O)c1ccc(Cl)cc1	13.1%
O=C(NCCc1ccc(Cl)cc1)c1ccc(Br)s1	13.8%
c1ccc(-c2ncnc3cc4n(c23)CCC4)cc1	16.1%
Cc1ccc2c(c1)-c1ccccc1S(=O)(=O)N2	5.29%
CCCn1c(=O)c2[nH]c(-c3ccc(OCC(=O)Nc4ccc(C#N)cc4)cc3)nc2n(CCC)c1=O	13.4%
CCN(CC(=O)Nc1c(F)cccc1F)C(=O)CN1C(=O)C2CCCCC2C1=O (stereo not shown)	3.22%
CC(=O)c1cccc(NC(=O)C2CC(=O)N(c3cccc(C)c3C)C2)c1 (stereo not shown)	5.94%
COc1ccc(N(CC(=O)Nc2ccccc2F)S(=O)(=O)c2ccc(C)c([N+](=O)[O-])c2)cc1	3.73%
O=C1CCCN1CCCN1CC(C(=O)N(CCO)Cc2ccccc2)CCC1=O (stereo not shown)	7.12%
CCC(=O)NCCc1nc(-c2ccccc2)no1	7.96%

Compound	hERG current change (%, negative = inhibition) at 1uM
CCOC(=O)c1ccc(N=C2NC(=O)CS2)cc1	-6.26%
COC(=O)c1c(NC(=O)c2ccccc2[N+](=O)[O-])sc2c1CC(C)(C)NC2(C)C	8.73%
COc1ccc(F)cc1C(=O)C1CCCN(Cc2cccn2-c2cccnc2)C1 (stereo not shown)	5.09%
NC(=O)c1ccc(SCC(=O)OCC(=O)NCC2CCCCC2)c([N+](=O)[O-])c1	12.5%
O=C(Cc1ccc(-n2c(=O)c3ccccc3n(Cc3ccccc3Cl)c2=O)cc1)NCC1CCCO1 (stereo not shown)	9.39%
CCOc1ccc(N=Nc2c(N)[nH][nH]c2=O)cc1	7.58%
CCCCC(=O)Nc1cc2nn(-c3ccc(OC)cc3)nc2cc1C	19%
Nc1nc2c(s1)CCCCCCCCCC2	16%
Cc1cc(C)c(C(=O)N2CCC(N3CCC(C(=O)NC(C)C)CC3)CC2)o1	-15.2%
Cc1onc(-c2c(F)cccc2Cl)c1C(=O)NCC1COc2ccccc2O1 (stereo not shown)	0.895%
CCN(CC)S(=O)(=O)c1ccc2[nH]cc(C(=O)NCCC3=CCCCC3)c(=O)c2c1	5.01%
CCCCCn1c(=O)c(C(=O)NCc2ccncc2)c(O)c2ccccc21	2.72%
Cc1ccc(Cc2cnc(N3C(=N)SC(C)C3=O)s2)cc1 (stereo not shown)	-0.252%
Cc1cc(=O)[nH]c(SCC(=O)c2ccccc2)c1C#N	2.86%
Cl.c1ccc(N2CCN(c3nc(NCc4ccco4)c4ccccc4n3)CC2)cc1	-9.89%
NNC(=S)Nc1ccc(S(=O)(=O)N2CCCCC2)cc1	11.4%
COc1ccnc(Nc2cccc(C)c2)c1C#N	-5.75%
CC(C)CCNC(=O)c1cc(S(=O)(=O)N2CCc3ccccc32)cn1C	13.7%
Cc1ccc(NC(=O)C2CCN(S(=O)(=O)c3c(C)noc3/C=C/N(C)C)CC2)cc1	15.8%
CC(C)n1ncc2c(C(=O)NCc3ccccc3CN(C)C)cc(C3CC3)nc21	0.977%
FC(F)(F)c1cnc(N2CCC(=NOCc3ccc(Cl)cc3)CC2)c(Cl)c1	19.7%
CC(C)c1onc(C(=O)Nc2cccnc2Cl)c1[N+](=O)[O-]	12.6%
Cc1cccc(Nc2ccc(S(=O)(=O)N3CCOCC3)cc2[N+](=O)[O-])c1	-5.27%

Compound	hERG current change (%, negative = inhibition) at 1uM
CC(C)NC(=O)c1ccc2c(c1)N(CC(=O)N1CCOCC1)C(=O)C(C)(C)O2	-9.82%
CC1CCCCC1NC(=O)CSc1nnc(CC(=O)Nc2ccccc2F)n1C (stereo not shown)	20.2%
COc1ccccc1NS(=O)(=O)c1ccc(Cl)c(NC(=O)C(C)N2C(=O)c3ccccc3C2=O)c1 (stereo not shown)	4.96%
C/C(=N\N=C\c1ccccc1F)c1nnn(-c2nonc2N)c1C	4.41%
Cc1cc(C)nc(Sc2c(C)n[nH]c2C)n1	9.25%
CC1(C)CC(=O)C(Sc2ccccc2C(=O)O)=C(O)C1	12%
O=C(CSCc1ccccc1)Nc1ccc2c(c1)OCO2	11%
CCCCCCN(C(=O)CCCCCN1C(=O)NC(c2ccc(-c3ccccc3)cc2)C(C(=O)OCc2ccccc2)=C1C)C(C)C(=O)NCCCC (stereo not shown)	15.8%
Cc1ccc(/C=N/n2c(-c3ccccc3)n[nH]c2=S)cc1	16.2%
CCOc1cc(NC(=S)NCCCN(C)C)c(OCC)cc1NC(=O)c1cccs1	-2.39%
O=C(c1ccc2ccccc2c1)c1c[nH]cc1-c1ccccc1	15.7%
Cn1c(-c2nnn(-c3ccc(F)cc3)n2)cc2ccccc21	20.1%
COc1ccc(CCNCC(O)COc2cccc(Br)c2)cc1 (stereo not shown)	-2.83%
CC1CCCC(NC(=O)COC(=O)c2cccnc2Cl)C1C (stereo not shown)	1.89%
O=C(O)c1ccc2c(c1)N(Cc1cccc(F)c1)C(=O)CS2	2.35%
Cc1ccnc(NC(=O)CSc2ccc3c(c2)OCCO3)c1	10.7%
Cc1cccc(N2C(=O)C(O)=C(C(=O)c3cccs3)C2c2ccccc2)n1 (stereo not shown)	15%
CCOC(=O)C1(Cc2ccc(Cl)cc2)CCN(C(=O)c2cscn2)CC1	-12.4%
O=C(O)c1ccc(CNCc2ccc(Cl)cc2)cc1	11.3%
CC1(C)C2CCC1(C)C(OC(=O)c1ccccc1C(=O)O)C2 (stereo not shown)	11.8%
CN(C)/C=N/c1cc(=O)[nH]c(=O)n1Cc1ccccc1	9.73%
COc1ccc(S(=O)(=O)Cc2ccc(C(=O)NC(C)C)o2)cc1	14%
